Experimental data taken from article PMC5892938.
Some of the results follow. At the low end of the ranking, values are background and their order means little.

The sequences below were run against GST-SBP-SLBP (stem-loop binding protein) (UniProt Q14493) (assay: targeted RNA Bind-n-Seq). Conditions: RBNS binding buffer: 25 mM Tris pH 7.5, 150 mM KCl, 3 mM MgCl2, 0.1% Tween, 0.5 mg/mL BSA, 1 mM DTT; 27 nM protein, 750 pM RNA pool; temperature not stated; high values mean tight binding.
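Note: DESeq read counts versus GST-SBP nonspecific binding control pulldown.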

Row | Sequence | binding signal (log2 fold change)
1 | GGUCACGUCUCAAUCAACUCUUUUUCCAGGGAAAACCCUGGCAUGUUCAACAGCUCGCAGUCAAG | 0.34
2 | GGUCACGUCUCAAUCAACUCUACUUCAGGAGUUUUCUCCUGUUUAUUCAACAGCUCGCAGUCAAG | -0.101
3 | GGUCACGUCUCAAUCAACUCAACUUCCAGGGAAAACCCUGGUAUUUUCAACAGCUCGCAGUCAAG | -0.108
4 | GGUCACGUCUCAAUCAACUCUAUCCCAGGAGUUUCCUCCUGUUAUUUCAACAGCUCGCAGUCAAG | 0.135
5 | GGUCACGUCUCAAUCAACUCUUCGUCCAGGGAAACCCCUGGCUUUUUCAACAGCUCGCAGUCAAG | -0.111
6 | GGUCACGUCUCAAUCAACUCAUUUUCCAGGGAAAUCCCUGGUUUUCUCAACAGCUCGCAGUCAAG | 0.165
7 | GGUCACGUCUCAAUCAACUCUUUCCCCAGGGAAACCCCUGGUUAUCUCAACAGCUCGCAGUCAAG | 0.128
8 | GGUCACGUCUCAAUCAACUCUAUCUCCAGGGAAACCCCUGGUAAUCUCAACAGCUCGCAGUCAAG | -0.0998
9 | GGUCACGUCUCAAUCAACUCUAUUUCCAGGGAAAACCCUGGCUAAUUCAACAGCUCGCAGUCAAG | -0.116
10 | GGUCACGUCUCAAUCAACUCAAUCUCAGGAGUUUUCUCCUGCUUACUCAACAGCUCGCAGUCAAG | 0.114
11 | GGUCACGUCUCAAUCAACUCAUCUUCAGGAGUUUACUCCUGCAAAUUCAACAGCUCGCAGUCAAG | -0.0112
12 | GGUCACGUCUCAAUCAACUCUACUUCCAGGGAAAUCCCUGGCAAAUUCAACAGCUCGCAGUCAAG | -0.0875
13 | GGUCACGUCUCAAUCAACUCAUCGUCAGGAGUUUUCUCCUGCUUUCUCAACAGCUCGCAGUCAAG | -0.0736
14 | GGUCACGUCUCAAUCAACUCUUCGCCAGGAGUUUUCUCCUGCUAAUUCAACAGCUCGCAGUCAAG | -0.0828
15 | GGUCACGUCUCAAUCAACUCCACAGAGGGGGGGAAAACCCCUUUACCCUCCAUUUCAACAGCUCGCAGUCAAG | -0.584
16 | GGUCACGUCUCAAUCAACUCUCCCGAGGGGGGGAAAACCCCUUUACCCUCUAUAUCAACAGCUCGCAGUCAAG | -0.352
17 | GGUCACGUCUCAAUCAACUCCAUAGAGGGGGGGAAAACCCCUUUACCCUCAACAUCAACAGCUCGCAGUCAAG | -0.00421
18 | GGUCACGUCUCAAUCAACUCAAUCCCCAGGGAAAUCCCUGGCUUUCUCAACAGCUCGCAGUCAAG | 0.15
19 | GGUCACGUCUCAAUCAACUCAUUUUCCAGGGAAAACCCUGGUUUACUCAACAGCUCGCAGUCAAG | 0.0824
20 | GGUCACGUCUCAAUCAACUCUACUUCAGGAGUUUGCUCCUGCAUUUUCAACAGCUCGCAGUCAAG | 0.125
21 | GGUCACGUCUCAAUCAACUCUCCCGAGGGGGGGAAAACCCCUUUACCCUCACCAUCAACAGCUCGCAGUCAAG | -0.0296
22 | GGUCACGUCUCAAUCAACUCUUCCUCCAGGGAAACCCCUGGUAUAUUCAACAGCUCGCAGUCAAG | -0.0262
23 | GGUCACGUCUCAAUCAACUCAUCUCCAGGAGUUUGCUCCUGUAAUCUCAACAGCUCGCAGUCAAG | 0.0533
24 | GGUCACGUCUCAAUCAACUCUAUGGAGGGGGGGAAAACCCCUUUACCCUCAACAUCAACAGCUCGCAGUCAAG | 0.0463
25 | GGUCACGUCUCAAUCAACUCUAUCUCCAGGGAAAGCCCUGGCAAACUCAACAGCUCGCAGUCAAG | -0.192

Row | Sequence | binding signal (log2 fold change)
26 | GGUCACGUCUCAAUCAACUCUCCAGAGGGGGGGAAAACCCCUUUACCCUCCAAUUCAACAGCUCGCAGUCAAG | 0.249
27 | GGUCACGUCUCAAUCAACUCUUUCUCAGGAGUUUUCUCCUGCUAUCUCAACAGCUCGCAGUCAAG | 0.0715
28 | GGUCACGUCUCAAUCAACUCAAUUCCAGGAGUUUACUCCUGUUUAUUCAACAGCUCGCAGUCAAG | -0.145
29 | GGUCACGUCUCAAUCAACUCUCACGAGGGGGGGAAAACCCCUUUACCCUCCAAUUCAACAGCUCGCAGUCAAG | -0.5
30 | GGUCACGUCUCAAUCAACUCCAUCGAGGGGGGGAAAACCCCUUUACCCUCAAAAUCAACAGCUCGCAGUCAAG | -0.154
31 | GGUCACGUCUCAAUCAACUCAUCGGAGGGGGGGAAAACCCCUUUACCCUCAACAUCAACAGCUCGCAGUCAAG | 0.253
32 | GGUCACGUCUCAAUCAACUCAUCUUCAGGAGUUUGCUCCUGCUUACUCAACAGCUCGCAGUCAAG | 0.0802
33 | GGUCACGUCUCAAUCAACUCAUUUUCCAGGGAAACCCCUGGUAUAUUCAACAGCUCGCAGUCAAG | -0.028
34 | GGUCACGUCUCAAUCAACUCUACUCCAGGAGUUUACUCCUGUAUACUCAACAGCUCGCAGUCAAG | -0.108
35 | GGUCACGUCUCAAUCAACUCAAUCUCAGGAGUUUGCUCCUGCAUUUUCAACAGCUCGCAGUCAAG | 0.117
36 | GGUCACGUCUCAAUCAACUCAUUCCCCAGGGAAACCCCUGGCAAAUUCAACAGCUCGCAGUCAAG | 0.142
37 | GGUCACGUCUCAAUCAACUCUACGCCAGGAGUUUUCUCCUGUAAUUUCAACAGCUCGCAGUCAAG | 0.0597
38 | GGUCACGUCUCAAUCAACUCAUUUUCAGGAGUUUUCUCCUGCUAUUUCAACAGCUCGCAGUCAAG | 0.0208
39 | GGUCACGUCUCAAUCAACUCAAUGUCAGGAGUUUACUCCUGUUAAUUCAACAGCUCGCAGUCAAG | 0.217
40 | GGUCACGUCUCAAUCAACUCAUUUUCAGGAGUUUCCUCCUGUAGUCUCAACAGCUCGCAGUCAAG | 0.0337
41 | GGUCACGUCUCAAUCAACUCAGUCUCCAGGGAAACCCCUGGCAAUUUCAACAGCUCGCAGUCAAG | -0.241
42 | GGUCACGUCUCAAUCAACUCAACGCCAGGAGUUUUCUCCUGCAAUUUCAACAGCUCGCAGUCAAG | -0.0487
43 | GGUCACGUCUCAAUCAACUCUUUUCCAGGAGUUUACUCCUGUAUUUUCAACAGCUCGCAGUCAAG | 0.0243
44 | GGUCACGUCUCAAUCAACUCAUCCUCAGGAGUUUCCUCCUGUUAACUCAACAGCUCGCAGUCAAG | 0.238
45 | GGUCACGUCUCAAUCAACUCUUCCUCCAGGGAAAACCCUGGUUAUCUCAACAGCUCGCAGUCAAG | 0.0493
46 | GGUCACGUCUCAAUCAACUCAUUCUCAGGAGUUUUCUCCUGCUUAUUCAACAGCUCGCAGUCAAG | -0.0524
47 | GGUCACGUCUCAAUCAACUCCCUAGAGGGGGGGAAAACCCCUUUGCCCUCAAUGUCAACAGCUCGCAGUCAAG | -0.498
48 | GGUCACGUCUCAAUCAACUCCCUCGAGGGGGGGAAAACCCCUUUACCCUCUACAUCAACAGCUCGCAGUCAAG | -0.181
49 | GGUCACGUCUCAAUCAACUCAUCCCCCAGGGAAAUCCCUGGCAAUCUCAACAGCUCGCAGUCAAG | -0.0951
50 | GGUCACGUCUCAAUCAACUCAGGUCCAGGAGUUUUCUCCUGCAAUUUCAACAGCUCGCAGUCAAG | 0.192

Row | Sequence | binding signal (log2 fold change)
51 | GGUCACGUCUCAAUCAACUCAAUUUCAGGAGUUUUCUCCUGUAUACUCAACAGCUCGCAGUCAAG | 0.00499
52 | GGUCACGUCUCAAUCAACUCUCCAGAGGGGGGGAAAACCCCUUUACCCUCGUUUUCAACAGCUCGCAGUCAAG | 0.0731
53 | GGUCACGUCUCAAUCAACUCUAUCUCCAGGGAAAACCCUGGCAUGUUCAACAGCUCGCAGUCAAG | 0.238
54 | GGUCACGUCUCAAUCAACUCAAUUUCAGGAGUUUCCUCCUGCUAAUUCAACAGCUCGCAGUCAAG | -0.0495
55 | GGUCACGUCUCAAUCAACUCUAUUCCCAGGGAAAGCCCUGGUAUUUUCAACAGCUCGCAGUCAAG | 0.387
56 | GGUCACGUCUCAAUCAACUCGCAAGAGGGGGGGAAAACCCCUUUACCCUCAUAAUCAACAGCUCGCAGUCAAG | -0.0816
57 | GGUCACGUCUCAAUCAACUCAUUCUCCAGGGAAAACCCUGGCAAAUUCAACAGCUCGCAGUCAAG | -0.00223
58 | GGUCACGUCUCAAUCAACUCAAACGAGGGGGGGAAAACCCCUUUACCCUCAAAUUCAACAGCUCGCAGUCAAG | -0.207
59 | GGUCACGUCUCAAUCAACUCUACUUCCAGGGAAAGCCCUGGUUAUCUCAACAGCUCGCAGUCAAG | 0.295
60 | GGUCACGUCUCAAUCAACUCAUUUCCCAGGGAAACCCCUGGCAAUCUCAACAGCUCGCAGUCAAG | -0.212
61 | GGUCACGUCUCAAUCAACUCAACUCCAGGAGUUUACUCCUGCUUUCUCAACAGCUCGCAGUCAAG | -0.171
62 | GGUCACGUCUCAAUCAACUCUUAAGAGGGGGGGAAAACCCCUUUGCCCUCAAAUUCAACAGCUCGCAGUCAAG | -0.142
63 | GGUCACGUCUCAAUCAACUCUAUCGCAGGAGUUUUCUCCUGGUAUCUCAACAGCUCGCAGUCAAG | 0.106
64 | GGUCACGUCUCAAUCAACUCUUUUUCCAGGGAAAUCCCUGGCAUAUUCAACAGCUCGCAGUCAAG | 0.212
65 | GGUCACGUCUCAAUCAACUCAUCGCCAGGAGUUUUCUCCUGUUUUUUCAACAGCUCGCAGUCAAG | -0.125
66 | GGUCACGUCUCAAUCAACUCAGUCUCAGGAGUUUUCUCCUGCUUUCUCAACAGCUCGCAGUCAAG | -0.0208
67 | GGUCACGUCUCAAUCAACUCAAUCUCCAGGGAAACCCCUGGUAUACUCAACAGCUCGCAGUCAAG | -0.00295
68 | GGUCACGUCUCAAUCAACUCUCACGAGGGGGGGAAAACCCCUUUGCCCUCACUAUCAACAGCUCGCAGUCAAG | 0.0894
69 | GGUCACGUCUCAAUCAACUCAACUCCAGGAGUUUUCUCCUGCUAACUCAACAGCUCGCAGUCAAG | 0.162
70 | GGUCACGUCUCAAUCAACUCAUUCUCAGGAGUUUGCUCCUGCUUUCUCAACAGCUCGCAGUCAAG | 0.212
71 | GGUCACGUCUCAAUCAACUCUUCAGAGGGGGGGAAAACCCCUUUACCCUCCCAAUCAACAGCUCGCAGUCAAG | -0.085
72 | GGUCACGUCUCAAUCAACUCUUCUUCCAGGGAAAACCCUGGCAUUCUCAACAGCUCGCAGUCAAG | -0.155
73 | GGUCACGUCUCAAUCAACUCAUCCUCCAGGGAAAUCCCUGGUAUUCUCAACAGCUCGCAGUCAAG | -0.0826
74 | GGUCACGUCUCAAUCAACUCAUUCCCAGGAGUUUUCUCCUGCUAUUUCAACAGCUCGCAGUCAAG | 0.00994
